Results: the supplement of paper PMC12217912
The other results are listed elsewhere or left out. The full chains were built here from the parent and the listed change. Inactive controls read about 0.05.

B1: TEV protease; numbered along this chain (parent)
chain: MGESLFKGPRDYNPISSSICHLTNESDGHTTSLYGIGFGPFIITNKHLFRRNNGTLVVQSLHGVFKVKDTTTLQQHLVDGRDMIIIRMPKDFPPFPQKLKFREPQREERICLVTTNFQTKSMSSMVSDTSCTFPSGDGIFWKHWIQTKDGQCGSPLVSTRDGFIVGIHSASNFTNTNNYFTSVPKNFMELLTNQEAQQWVSGWRLNADSVLWGGHKVFMVKPEEPFQPVKEATQL

Variants of: B1
Assay: raw area under fraction-flipped curve 0-4 h after induction (AUC4h, not background-subtracted), DNA-recorder readout of cleavage of the substrate (dimensionless); higher = more cleavage of the substrate by the protease variant
Conditions: temperature: 34 °C; time window: 0-4 h after rhamnose induction
Experimental: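 In vivo DNA recorder in E. coli TOP10(DE3) ΔrhaA at 34 °C. Each TEVp single-site mutant (parent TEVp 0) is paired with a single-site variant of the 7-mer TEVs (canonical ENLYFQ|S). The substrate sits between flexible linkers in a Bxb1-sfGFP-TEVs-SsrA fusion, so cleavage stabilises Bxb1 and speeds flipping of a recombination array, read by NGS. The value is the raw area under the fraction-flipped curve over 0-4 h after rhamnose induction (AUC4h), with ≥20 reads per time point. It is not background-subtracted; inactive controls average about 0.047.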
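Further: Bxb1 expression induced with 0.2% (w/v) L-rhamnose at OD600 near 0.5, cultures sampled hourly, flipped fraction per protease–substrate barcode pair counted by paired-end Illumina sequencing.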

| Variant | area with substrate ENLYFAS | area with substrate ENLYFCS | area with substrate ENLYFDS | area with substrate ENLYFES | area with substrate ENLYFFS | area with substrate ENLYFGS | area with substrate ENLYFHS | area with substrate ENLYFIS | area with substrate ENLYFKS | area with substrate ENLYFLS | area with substrate ENLYFMS | area with substrate ENLYFNS | area with substrate ENLYFPS | area with substrate ENLYFRS | area with substrate ENLYFSS | area with substrate ENLYFTS | area with substrate ENLYFVS | area with substrate ENLYFWS | area with substrate ENLYFYS |
| --- | --- | --- | --- | --- | --- | --- | --- | --- | --- | --- | --- | --- | --- | --- | --- | --- | --- | --- | --- |
| R204I | 0.0502 | 0.0503 | 0.0544 | 0.0621 | 0.0676 | 0.0632 | 0.0651 | 0.061 | 0.0669 | 0.0611 | 0.0679 | 0.0732 | 0.0567 | 0.0546 | 0.054 | 0.0523 | 0.0582 | 0.0531 | 0.0533 |
| N206F | 0.0622 | 0.0604 | – | 0.0635 | 0.0807 | – | 0.0428 | 0.052 | 0.0534 | – | 0.0602 | 0.0361 | 0.0657 | 0.0661 | 0.0243 | 0.0511 | – | 0.0567 | – |
| A207C | 0.0671 | 0.0247 | 0.0623 | 0.073 | – | 0.0586 | 0.0513 | 0.0711 | 0.075 | – | 0.0756 | 0.0676 | 0.0659 | 0.0379 | 0.0346 | 0.0576 | 0.0716 | – | – |
| A207M | 0.0775 | – | 0.0552 | 0.0756 | 0.0732 | – | – | – | – | – | 0.0648 | 0.0562 | 0.0618 | 0.0701 | – | – | – | – | – |
| A207S | 0.0706 | 0.0544 | 0.0399 | 0.062 | 0.0858 | – | 0.0703 | 0.0505 | 0.0636 | – | 0.0692 | 0.0597 | 0.0628 | – | 0.0539 | – | 0.0565 | 0.0478 | 0.0585 |
| D208C | 0.0697 | 0.054 | – | 0.0551 | 0.0631 | 0.0658 | – | 0.0734 | 0.0703 | 0.0885 | 0.0495 | 0.0657 | 0.0838 | 0.0801 | – | 0.0606 | – | 0.0467 | 0.0647 |
| D208F | 0.0622 | 0.0594 | 0.052 | 0.0574 | 0.066 | 0.0609 | 0.0483 | 0.0571 | 0.0457 | 0.0587 | 0.0685 | – | 0.0529 | 0.0598 | 0.0694 | 0.0642 | 0.0635 | 0.0518 | 0.0565 |
| D208H | 0.0456 | – | – | 0.0597 | – | – | – | 0.0791 | – | – | – | 0.0616 | 0.053 | – | – | 0.0432 | – | 0.0704 | 0.0428 |
| D208L | 0.0617 | 0.059 | – | – | – | 0.0716 | 0.0452 | 0.0537 | – | – | 0.06 | – | 0.073 | 0.0594 | 0.0547 | 0.0722 | – | 0.0464 | 0.0604 |
| D208M | 0.0553 | 0.0511 | 0.0327 | – | – | – | 0.0575 | 0.061 | – | – | 0.0771 | 0.0581 | 0.0597 | 0.0477 | – | – | – | 0.0582 | 0.0551 |
| D208R | 0.092 | 0.0648 | 0.0523 | 0.0609 | 0.0646 | 0.062 | 0.0473 | – | – | 0.0526 | 0.0465 | 0.0411 | 0.0595 | 0.0592 | – | 0.0854 | 0.0501 | 0.0517 | 0.0489 |
| D208Y | 0.062 | 0.0556 | 0.0697 | 0.0584 | 0.0686 | 0.0525 | – | 0.052 | 0.0452 | – | 0.0689 | 0.0557 | 0.0488 | 0.0485 | 0.0558 | 0.0551 | 0.074 | 0.054 | 0.0545 |
| S209P | 0.0624 | 0.0548 | – | 0.0597 | 0.0608 | 0.0236 | – | 0.0481 | 0.0619 | 0.0481 | 0.0587 | 0.0516 | 0.0485 | 0.0384 | – | – | 0.0564 | 0.0599 | 0.0534 |
| V210Y | 0.0679 | 0.0569 | 0.0605 | 0.0603 | 0.0701 | – | 0.0827 | 0.0616 | 0.0345 | 0.0494 | 0.0703 | 0.0646 | 0.0496 | 0.0639 | 0.0433 | 0.0709 | – | 0.0577 | – |
| W212E | 0.0505 | 0.0539 | – | 0.0626 | 0.0711 | – | 0.0713 | 0.0602 | 0.0833 | – | – | – | 0.062 | – | – | 0.054 | – | – | 0.0454 |
| W212V | 0.0632 | – | 0.0657 | 0.0729 | 0.0691 | 0.0523 | – | 0.0617 | 0.0732 | – | 0.0667 | – | 0.0582 | 0.0673 | 0.017 | 0.067 | – | 0.0672 | – |
| G214S | 0.0508 | 0.0709 | 0.082 | – | 0.101 | – | – | – | 0.073 | – | 0.0595 | – | – | – | – | – | 0.0605 | – | – |
| H215Q | 0.0328 | 0.049 | – | 0.0595 | – | – | 0.0554 | 0.0648 | 0.0688 | – | 0.0504 | 0.0583 | 0.0536 | 0.0448 | – | 0.0596 | 0.0573 | 0.0433 | 0.0699 |
| K216C | 0.056 | – | 0.0547 | – | 0.0718 | – | – | 0.0517 | 0.0566 | – | – | – | – | – | 0.0404 | 0.0709 | – | 0.0809 | – |
| K216T | 0.0406 | 0.0541 | 0.0622 | 0.0656 | 0.0642 | 0.0595 | 0.0544 | 0.0566 | 0.0671 | – | 0.0655 | 0.0651 | 0.0695 | – | – | 0.0603 | 0.0577 | – | – |
| K216V | 0.0582 | 0.0657 | – | – | 0.0606 | – | – | – | 0.086 | 0.0567 | – | 0.0605 | 0.0574 | – | – | – | 0.0289 | 0.0599 | – |
| V217W | 0.0478 | 0.0668 | – | 0.0621 | 0.0645 | 0.0964 | 0.0475 | 0.0474 | 0.075 | 0.0633 | 0.0647 | 0.0529 | 0.0343 | 0.0722 | 0.072 | 0.0641 | 0.0676 | 0.0426 | – |
| M219A | 0.0666 | – | – | 0.0627 | 0.0672 | 0.047 | 0.0657 | 0.0577 | – | 0.0622 | 0.0577 | 0.0559 | 0.0637 | – | – | 0.0642 | 0.0714 | 0.0543 | 0.0597 |
| V220Q | 0.0529 | 0.0596 | – | 0.0663 | 0.0642 | 0.0638 | 0.0458 | 0.0555 | 0.062 | – | 0.0743 | 0.0646 | 0.059 | – | 0.0615 | 0.0583 | 0.0576 | 0.0571 | – |
| P222W | 0.074 | – | – | 0.0626 | 0.0289 | 0.0484 | – | 0.0572 | 0.0572 | 0.0506 | 0.0696 | 0.0629 | 0.0437 | 0.0692 | 0.0519 | 0.0454 | – | 0.0492 | – |
| E223L | 0.0622 | 0.0719 | – | 0.0658 | 0.0666 | – | 0.0687 | 0.0567 | 0.0565 | 0.221 | 0.0629 | 0.0605 | 0.0572 | 0.0639 | – | 0.0737 | 0.0501 | 0.0579 | 0.0548 |
